86 sequences from the supplement of paper PMC3334620 can be followed below.

Whole data set: some 33,000 sequences, median “E-score (-0.5 to 0.5)” near -0.043, cut for the highest 2% near 0.37. The list shows a part of the results.

This assay has as its target T1, Upc2 (UniProt Q12151).
T1 sequence: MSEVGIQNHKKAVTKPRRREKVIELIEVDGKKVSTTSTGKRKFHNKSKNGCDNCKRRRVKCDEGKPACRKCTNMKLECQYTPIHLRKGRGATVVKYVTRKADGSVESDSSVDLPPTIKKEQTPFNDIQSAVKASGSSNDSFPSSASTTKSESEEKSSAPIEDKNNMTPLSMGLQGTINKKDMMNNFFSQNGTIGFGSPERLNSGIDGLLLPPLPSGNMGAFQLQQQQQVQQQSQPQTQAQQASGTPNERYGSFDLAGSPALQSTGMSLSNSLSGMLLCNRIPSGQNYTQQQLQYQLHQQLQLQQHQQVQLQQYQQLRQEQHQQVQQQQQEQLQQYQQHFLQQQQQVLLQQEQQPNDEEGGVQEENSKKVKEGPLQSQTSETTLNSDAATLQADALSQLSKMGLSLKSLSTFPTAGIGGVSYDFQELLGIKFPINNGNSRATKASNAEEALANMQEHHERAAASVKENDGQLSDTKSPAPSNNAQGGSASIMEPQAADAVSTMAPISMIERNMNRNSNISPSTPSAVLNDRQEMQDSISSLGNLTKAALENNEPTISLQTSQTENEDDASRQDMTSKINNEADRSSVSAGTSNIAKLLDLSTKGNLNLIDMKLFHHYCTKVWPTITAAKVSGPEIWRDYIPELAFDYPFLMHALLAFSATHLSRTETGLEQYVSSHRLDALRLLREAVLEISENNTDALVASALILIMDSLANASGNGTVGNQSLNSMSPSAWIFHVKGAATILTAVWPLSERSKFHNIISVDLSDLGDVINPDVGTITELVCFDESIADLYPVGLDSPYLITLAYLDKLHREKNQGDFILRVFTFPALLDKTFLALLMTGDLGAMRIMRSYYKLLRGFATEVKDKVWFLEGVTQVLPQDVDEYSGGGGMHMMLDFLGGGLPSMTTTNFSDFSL
Nature of the assay: PBM E-score (8-mer binding enrichment) (E-score (-0.5 to 0.5)); higher = stronger / more preferred TF binding; most listed sequences are background and not binding sites. The conditions noted are these: protein concentration: 200 nM; construct: GST-full length. In short, it runs like this: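 The E-score, a modified Wilcoxon-Mann-Whitney statistic, was computed by the Universal PBM Analysis Suite for every ungapped eight-base word pooled with its reverse complement. Scans behind it were normalised with masliner after bound GST-tagged yeast transcription factors were detected with fluorescent anti-GST. The proteins, at about 100-200 nM, had been applied to universal all-10-mer Agilent arrays made double-stranded by primer extension.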
ATGAACAT: the “PBM E-score” value is -0.0224.

As for CAAACTAG, the “PBM E-score” value was -0.105.

As to ATCTTGGC, the “PBM E-score” value is -0.0793.

With GAACAGTC, the “PBM E-score” value stood at 0.0834.

Turning to AGAAAGAG, the “PBM E-score” value was -0.257.

In the case of CGGTTACA, the “PBM E-score” value was 0.156.

Consider CGTGATAG, for which the “PBM E-score” value came to 0.106.

Regarding CATTACCC, the “PBM E-score” value was -0.19.

CATCGCCC: the “PBM E-score” value is -0.0703.

CTAAACTA: the “PBM E-score” value was -0.0447.

With CGCCCAAG, the “PBM E-score” value was -0.0616.

Take TCGAATAA: the “PBM E-score” value came to 0.257.

Regarding CCAGACAC, the “PBM E-score” value came out at 0.0022.

As for CTCGGTCC, the “PBM E-score” value amounted to 0.179.

Take AAGGGCGT: the “PBM E-score” value came to 0.0524.

In the case of AGGTAACG, the “PBM E-score” value is 0.0398.

In the case of CATTTTCG, the “PBM E-score” value worked out at 0.0944.

For the sequence CACTCTCG, the “PBM E-score” value stood at 0.175.

Turning to ACAGGCTA, the “PBM E-score” value is -0.111.

Turning to TGATTAAA, the “PBM E-score” value was 0.0154.

On to ACCGAGAT, for which the “PBM E-score” value turned out to be 0.126.

Consider ATTTTAAG, for which the “PBM E-score” value was determined as 0.0623.

Take CCTGCGAG: the “PBM E-score” value was -0.206.

On to GCTAGACA, for which the “PBM E-score” value was -0.184.

GGATAGAA: the “PBM E-score” value was 0.021.

Turning to CGGCTGTA, the “PBM E-score” value was -0.137.

Turning to CTCCTGAA, the “PBM E-score” value is -0.106.

With AACCGAAG, the “PBM E-score” value stood at 0.202.

Take AGACGTAA: the “PBM E-score” value came out at 0.00819.

With AAGATACC, the “PBM E-score” value was -0.131.

With GCCCTGCA, the “PBM E-score” value is -0.275.

With CCACCTCC, the “PBM E-score” value is -0.394.

As to ACTTCCGA, the “PBM E-score” value was -0.024.

Consider CGTTCAGC, for which the “PBM E-score” value stood at 0.396.

For the sequence GAATACGC, the “PBM E-score” value was determined as 0.175.

For ACCGTCAA, the “PBM E-score” value was -0.0393.

In the case of AGGCCCAC, the “PBM E-score” value was -0.199.

As to AAGCCGAC, the “PBM E-score” value was -0.00759.

As for AACTTGGA, the “PBM E-score” value amounted to 0.0023.

GGGATGAC: the “PBM E-score” value is -0.14.

As for CGTCATAG, the “PBM E-score” value was -0.0726.

Regarding GAACATAA, the “PBM E-score” value turned out to be 0.0237.

On to TCACCGCA, for which the “PBM E-score” value was -0.186.

With CCAGCTGG, the “PBM E-score” value came to 0.103.

With AACCGCGA, the “PBM E-score” value worked out at 0.05.

In the case of AGGGCGAC, the “PBM E-score” value was -0.157.

For the sequence AGTAGTGC, the “PBM E-score” value was -0.241.

On to GCCTAAAC, for which the “PBM E-score” value amounted to 0.265.

ATGGCCGA: the “PBM E-score” value was -0.12.

Regarding GGCGGCAA, the “PBM E-score” value is -0.287.

For the sequence TCGGGTAA, the “PBM E-score” value stood at 0.151.

As to CGGCCTGC, the “PBM E-score” value is -0.0561.

With AGCGCGTG, the “PBM E-score” value came to 0.137.

Consider GCGGAGAC, for which the “PBM E-score” value is -0.0396.

On to ATTCCACG, for which the “PBM E-score” value is -0.163.

Regarding TGACACCA, the “PBM E-score” value was -0.217.

Turning to CGGAAGCC, the “PBM E-score” value was -0.0575.

On to AGTGGCGA, for which the “PBM E-score” value was -0.073.

For GCAACATA, the “PBM E-score” value stood at 0.0896.

On to GTGTCTGA, for which the “PBM E-score” value was -0.145.

In the case of GCGAAGAA, the “PBM E-score” value came to 0.0788.

Regarding GTGTCCTA, the “PBM E-score” value is -0.0178.

Take GACTAAGA: the “PBM E-score” value is -0.0274.

In the case of AAGACGTA, the “PBM E-score” value was found to be 0.212.

AAGCGGAT: the “PBM E-score” value is -0.0988.

Take ATGAGGTA: the “PBM E-score” value is -0.0929.

As to TCCGCACA, the “PBM E-score” value is -0.183.

With ATAAAAAA, the “PBM E-score” value came out at 0.0851.

CGTGGCGA: the “PBM E-score” value is -0.0678.

As for GGGTACTA, the “PBM E-score” value was found to be 0.156.

Take AACGTTAG: the “PBM E-score” value amounted to 0.043.

With CACTCCTA, the “PBM E-score” value was -0.26.

Take CTAAATTC: the “PBM E-score” value stood at 0.0497.

Regarding CGGTTCAC, the “PBM E-score” value is -0.117.

As to CTTCTAAA, the “PBM E-score” value was found to be 0.0332.

For TAGACTGA, the “PBM E-score” value is -0.094.

Turning to CGATCCAG, the “PBM E-score” value came out at 0.0415.

GTTCGGCA: the “PBM E-score” value was 0.0731.

Consider ATCAGTTA, for which the “PBM E-score” value worked out at 0.127.

As for CTTTTCTA, the “PBM E-score” value is -0.0661.

Consider AGGTGGAT, for which the “PBM E-score” value is -0.111.

Turning to ACGATGAT, the “PBM E-score” value is 0.332.

On to AAAATACC, for which the “PBM E-score” value is -0.00403.

Consider AAGACCCC, for which the “PBM E-score” value is -0.132.

With TAATGGAA, the “PBM E-score” value was -0.041.

In the case of CGAATCAC, the “PBM E-score” value was 0.0456.
